Experimental data: the supplement of paper PMC11417369
The other results are listed elsewhere or left out.

The sequences below were run on PfSIP2 AP2 domain 1 (GST-tagged) (assay: gcPBM binding intensity (ln(normalized median fluorescence intensity)); higher = stronger DNA binding).
How it was run: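 The binding buffer was 1× PBS containing 1% milk, 0.2 mg/ml BSA, 0.5% salmon testes DNA and 0.03% Triton X-100. In it, GST-tagged P. falciparum DNA-binding domains expressed in E. coli were applied for 1 h to an Agilent 4 × 180k array of primer-extended double-stranded 36-bp intergenic genomic probes plus negative controls. Binding intensity, read with Alexa488 anti-GST antibody and a 488 nm scan, is the highest Masliner-normalised natural-log median intensity across replicate spots of either probe orientation.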

Going from “TTATTATATTCTCCTTCACACACAAAAATATTTCAT [CACACA_site8738]” to “AGGACTAATATTTGAACACACATATAACATATACAT [CACACA_site7803]”, the “gcPBM binding intensity (ln)” value falls from 7.25 to 7.03.

Compared with “CTTTTAAATTATTTTTGTACATAATTATATATATAT [XGTACX_site4128]”, “AACTATAAATATAAATGTACACATATGTAATATATA [XGTACX_site6085]” is lower in “gcPBM binding intensity (ln)” value: 8.44 for the first, 6.97 for the second.

First: AAAAGGAAAATTTTCTTAGTAACTGCATTAAGAGAT [GTGCAC_negctrl_site675]
Second: TACTGTTTAAAATATAAACACACATTGTTTGCTTTA [CACACA_site8358]
The “gcPBM binding intensity (ln)” value of the first is higher: 7.04 for the first, 6.98 for the second.

Compared with “ATATGATGTAAAAGCACACATATATATATATATATA [CACACA_site4018]”, “TACTATAAAATGGAATGTACACATAAATATATCTAA [XGTACX_site6137]” is lower in “gcPBM binding intensity (ln)” value: 9.59 for the first, 7.1 for the second.

Going from “GTTTATAACTATGTGTGTACACATTAATCGTTTTTC [XGTACX_site4364]” to “CACATACACATACACATACACACGCATAGAAACATA [CACACA_site2136]”, the “gcPBM binding intensity (ln)” value rises from 7 to 7.43.

Going from “TTGTATAAATATGTATGTATATAATATATGTAAAGA [TGCATGCA_negctrl_site93]” to “AAATCGTGTACATTGACACACATAATTTTTTTTATA [CACACA_site2463]”, the “gcPBM binding intensity (ln)” value rises from 7.05 to 7.13.

Compared with “AATATATTTATATAGTGTACATTTTTTATATATGTA [XGTACX_site8142]”, “TATTAATTTTTATTATGTACATAAATAATTTATATT [XGTACX_site5456]” is lower in “gcPBM binding intensity (ln)” value: 7.11 for the first, 6.96 for the second.

Going from “GGATAGATCATTTACACACACAAAAAAAAAAAAAAA [CACACA_site2139]” to “ATAATATATTATTATAGTACTTTATTTTATTTTATG [XGTACX_site2387]”, the “gcPBM binding intensity (ln)” value falls from 7.05 to 6.97.

Going from “AATATATATATACATACATGCATACATATATATATA [TGCATGCA_site784]” to “TAAGGAAAAAGAAAAAGTACATTATATAATAAATAG [XGTACX_site3282]”, the “gcPBM binding intensity (ln)” value falls from 9.25 to 7.

Compared with “CAAATATATGTTTTCACACACAAAAGAAATGAAACC [CACACA_site2162]”, “AAAAAAAATAAAATGAATAAATAAGAATTACATATT [CACACA_negctrl_site863]” is lower in “gcPBM binding intensity (ln)” value: 6.78 for the first, 6.74 for the second.

First: AAAAAGAAGATATATACACACCAAAAAAAAAAAAAA [CACACA_site7471]
Second: ATTTCATATACAAATTGTACATACAATTTTATGTTT [XGTACX_site3240]
The “gcPBM binding intensity (ln)” value of the first is lower: 6.74 for the first, 7.1 for the second.

Going from “TTAAAAATAATATTATGTACTAAGAATAAATATATA [XGTACX_site3100]” to “TGTTAAAATAAAATCTATTACATTTTTATGGTTATA [XGTACX_negctrl_site525]”, the “gcPBM binding intensity (ln)” value falls from 6.88 to 6.57.

Going from “TCTTGTAAATATATGTGTATATTATATTTTATTATA [TGCATGCA_negctrl_site117]” to “CTTAATATTCTTTAAAGTACACAAAATAAGAATATA [XGTACX_site5489]”, the “gcPBM binding intensity (ln)” value rises from 6.88 to 6.99.

Going from “TGCAAGGAAAAACACACACACACATAAATGTATATA [CACACA_site751]” to “AAAAAACACGCACATACACACAAAAATGTTATAAAT [CACACA_site6188]”, the “gcPBM binding intensity (ln)” value falls from 7.13 to 7.07.

Compared with “TTATATTTTTTAATTACACACAATTTTTATAAATAT [CACACA_site4148]”, “ATCTCATAAAACCGCACACACATAAAATTTGCATTA [CACACA_site3891]” is higher in “gcPBM binding intensity (ln)” value: 6.96 for the first, 7.55 for the second.

First: CTAGTAAAAAATGCAAGTACATACATTATAAGTATA [XGTACX_site3908]
Second: ATATTGGAGCACAACACACACAAGTATAAATATGGA [CACACA_site6834]
The “gcPBM binding intensity (ln)” value of the first is lower: 6.92 for the first, 7.32 for the second.

First: AAAGAGAACAGAAGTACACACATGTTCTTTTAGTAA [CACACA_site5557]
Second: ATATTCTGCTGTTTAGTGCAATTATGAAATTATGAT
The “gcPBM binding intensity (ln)” value of the first is lower: 6.57 for the first, 7.9 for the second.

First: TAAAAAATAAAAATTGCACACTAAAAAATTACCCAC [CACACA_site5823]
Second: TTGATTTTTATTTTTAAAATAAATAAATTTCAAATG [TGCATGCA_negctrl_site199]
The “gcPBM binding intensity (ln)” value of the first is higher: 7.78 for the first, 6.99 for the second.

First: TTTTTTTTTCTTTGGTGTACAATGTAATAGAAAATA [XGTACX_site227]
Second: AAAAAAAACAAACACACACACAAATATTTATATATT [CACACA_site436]
The “gcPBM binding intensity (ln)” value of the first is higher: 7.46 for the first, 6.95 for the second.

Going from “TAAAAAGAAATGTAAAGTACAAATTTGAATAACATG [XGTACX_site7981]” to “ATATGTATTTATATATGTTTGATTTTTTTTTTTTTT [TGCATGCA_negctrl_site506]”, the “gcPBM binding intensity (ln)” value falls from 7.08 to 7.01.

Going from “AGGAAAAAAGAAAAAACACACATAAATATATATATA [CACACA_site3085]” to “CATACAGACATACATACACACATACCTATAAATATA [CACACA_site6995]”, the “gcPBM binding intensity (ln)” value falls from 9.02 to 7.22.

First: AAATGAAATAAAATCATATATTTATAATTATTATAA [TGCATGCA_negctrl_site612]
Second: TAGCTCGTTCGGAGCACACACATATATATATATATA [CACACA_site1948]
The “gcPBM binding intensity (ln)” value of the first is lower: 6.81 for the first, 9.79 for the second.

Going from “ATATGTATGTATGTATGTACTTATTTATTTATTAAT [XGTACX_site8018]” to “TACATAAATTAAAACACACACACACTAATAAAAAAA [CACACA_site8712]”, the “gcPBM binding intensity (ln)” value rises from 7.08 to 7.13.

First: GTTTTATTTTGTTTCTATTTGACACATGTGATTATT [CACACA_negctrl_site1246]
Second: ATTCAATATATATACACACACACTTTTAATAATTAA [CACACA_site3770]
The “gcPBM binding intensity (ln)” value of the first is higher: 7.35 for the first, 7.09 for the second.

Going from “AAAAAATTATATAAATGTACATTTTGGCTAGACATG [XGTACX_site5977]” to “TTTTTTTTTGAATATTGTACATATATATTACTTTTA [XGTACX_site5520]”, the “gcPBM binding intensity (ln)” value falls from 6.92 to 6.8.

First: CATATATATAATTATTCACACAATAGTTAAAAGTAT [CACACA_site5302]
Second: ATTAAGACACATTGCACACGTGCACCCATAGAAAAA [CACACA_site408]
The “gcPBM binding intensity (ln)” value of the first is lower: 6.9 for the first, 12.2 for the second.

Compared with “GACCATATGAATAATGCACACGTTTTAAAATATTAA [CACACA_site5312]”, “TATTTATTATTAAGATGTACATAAAACACTGAATAA [XGTACX_site4246]” is lower in “gcPBM binding intensity (ln)” value: 7.48 for the first, 6.91 for the second.

Compared with “TGAAAAAGGAAAAAAAAAAAAAAAAAAAAAACGAAA [GTGCAC_negctrl_site555]”, “TTTTAATTAAGACACACACACACATATAAATATGTA [CACACA_site7144]” is higher in “gcPBM binding intensity (ln)” value: 6.75 for the first, 7.03 for the second.

“TATCATTTCATATCAAGTACAAACATTTTACATATA [XGTACX_site5307]” and “ATAATAATATATATTGTACACACAAAATGGGAAAAA [CACACA_site8568]” are the same in “gcPBM binding intensity (ln)” value: 7.2 for the first, 7.2 for the second.

First: TATATATATATAATAGTGCATAAATAAATATATAAA
Second: AGCTCTTGTCATTTTGCACACACACCCGTATAGGTT [CACACA_site3056]
The “gcPBM binding intensity (ln)” value of the first is higher: 9.34 for the first, 7.39 for the second.

First: AAAAGGGAAATAAAATAAAAAAAGAAACATATATAG [CACACA_negctrl_site455]
Second: GATTCTTCACCGTACTCACACATATATATATATATA [CACACA_site5665]
The “gcPBM binding intensity (ln)” value of the first is lower: 6.91 for the first, 9.03 for the second.

First: TCTTTTTTTTTTAAACGTACATTGCATTATCACGTA [XGTACX_site6873]
Second: ATCCATTATTTTTGTTGTACGGGTAACTTTAAAAAG [XGTACX_site2226]
The “gcPBM binding intensity (ln)” value of the first is higher: 7.19 for the first, 7.14 for the second.

Going from “TAATTATATGTATACACACACATACATTTACATAAC [CACACA_site3238]” to “TTAATTTCTATATACGCATGTATGAATAAGATATTG [TGCATGCA_site202]”, the “gcPBM binding intensity (ln)” value falls from 7.19 to 6.75.

Going from “ATTTTTTTATAAGAAAATTTCTAACGTTAAAAAAAA [CACACA_negctrl_site1367]” to “TATAATTATATATATAGTACAGATTTGTTATGTTTA [XGTACX_site7724]”, the “gcPBM binding intensity (ln)” value rises from 6.86 to 6.94.

First: CAAACAAACAAATATACACACTTTTGTATAAAGTAA [CACACA_site5860]
Second: TATCTCATAGTATACACACACACACCCACCCATATA [CACACA_site1739]
The “gcPBM binding intensity (ln)” value of the first is lower: 6.79 for the first, 7.18 for the second.

Going from “CACACGCACGAACACACACACACACGCATATAAATA [CACACA_site6302]” to “AATATATATATATTCACACATAAAAAAGTAAAAAAA [CACACA_site5040]”, the “gcPBM binding intensity (ln)” value falls from 7.66 to 7.14.

First: CATTTACATGCCAACATGCACTGAACAATCTTTATA [GTGCAC_site9797]
Second: ACAAAACTTTTAAGAACACACAAAAATGTACTATCG [CACACA_site7245]
The “gcPBM binding intensity (ln)” value of the first is higher: 7.46 for the first, 6.78 for the second.

Compared with “TTTTATGAATAATTATGTACATAACAAATGATATAT [XGTACX_site8318]”, “TACAAAAAAAAATAAAATACATATATATATATATAT [XGTACX_negctrl_site608]” is higher in “gcPBM binding intensity (ln)” value: 7.3 for the first, 9.76 for the second.

“CCCTATATAAATAGCTGTACATTTGAACATGTTCAG [XGTACX_site2187]” and “TTTACAGGAAAAAATACACACATTATTTTACCTTAT [CACACA_site2833]” are the same in “gcPBM binding intensity (ln)” value: 6.97 for the first, 6.97 for the second.

First: CAATAAAAATTAAAATGTACAAATAAATATAAATAT [XGTACX_site7265]
Second: ACATGCCAAAATCTAATACAATAATAATAAAAAAAA [XGTACX_negctrl_site160]
The “gcPBM binding intensity (ln)” value of the first is lower: 6.82 for the first, 6.84 for the second.

Compared with “ATGAATTATAAATATTCACACAATATTTTTCATATG [CACACA_site4484]”, “AGTGTGCTCAGCTTAGCACAAATTGGAATACCATGT [CACACA_negctrl_site367]” is higher in “gcPBM binding intensity (ln)” value: 6.78 for the first, 7.18 for the second.

First: GAAAATGAAATCCTTGCATGTAAAATTAAAATAGAA [TGCATGCA_site569]
Second: GTAGTAATAAATTAAAGTACAGAATATATTATACTA [XGTACX_site2809]
The “gcPBM binding intensity (ln)” value of the first is higher: 7.05 for the first, 6.89 for the second.

First: TTTTTTTCTTAAAGATGTACTTTTTAAAAATAATCT [XGTACX_site1429]
Second: TGTGTGTGTTCATGGGTGCTTTAATACTATTATAGG [GTGCAC_site9465]
The “gcPBM binding intensity (ln)” value of the first is lower: 6.68 for the first, 8.34 for the second.

Compared with “TATTATAAAAATATTCAGATACATTAACTTACTTTT [XGTACX_negctrl_site4]”, “TATTTGCTACATATATGTACTAAAAACTTTTTGCTT [XGTACX_site2362]” is higher in “gcPBM binding intensity (ln)” value: 6.65 for the first, 6.96 for the second.
